According to PubChem BioAssay AID2147 (National Center for Advancing Translational Sciences (NCATS), 2009):
About 3,600 (1.6%) of roughly 230,000 compounds were called active. The inconclusive results got no clear call from the source; some entries with a clear call stand among them for comparison. The call rests on the fitted dose curve; in most records, active means well fitted inhibition curve with a large enough effect (not every such curve was filed as active); inconclusive means small, poorly fitted or top-dose-only effect, or another doubt; inactive means no such curve, though single readings can be large or run the other way. Where the call is inconclusive, the potency comes from a doubtful curve fit.

target: Lysine-specific demethylase 4E (Homo sapiens) (UniProt B2RXH2); test: qHTS Assay for Inhibitors of Human Jumonji Domain Containing 2E (JMJD2E); details: JMJD2E catalytic domain, FDH-coupled NADH fluorescence (FDH is formaldehyde dehydrogenase); series mostly up to 57.1 µM
Sequence of UniProt B2RXH2 (B2RXH2 whole entry, looked up, the tested form may be a part): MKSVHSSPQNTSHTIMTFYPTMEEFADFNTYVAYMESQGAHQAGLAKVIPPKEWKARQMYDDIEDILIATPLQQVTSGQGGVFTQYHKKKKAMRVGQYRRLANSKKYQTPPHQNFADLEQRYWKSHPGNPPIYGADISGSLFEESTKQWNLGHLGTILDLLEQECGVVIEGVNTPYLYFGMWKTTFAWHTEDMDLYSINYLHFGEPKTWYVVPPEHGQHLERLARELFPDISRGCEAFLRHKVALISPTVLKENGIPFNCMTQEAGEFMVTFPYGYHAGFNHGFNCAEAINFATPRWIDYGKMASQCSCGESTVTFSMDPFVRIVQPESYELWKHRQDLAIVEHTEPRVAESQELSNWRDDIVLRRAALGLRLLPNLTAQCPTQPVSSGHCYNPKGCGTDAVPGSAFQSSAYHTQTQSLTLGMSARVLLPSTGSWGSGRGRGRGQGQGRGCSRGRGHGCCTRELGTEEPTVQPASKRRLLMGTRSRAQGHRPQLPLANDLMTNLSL
Further: nearly all actives have a fitted effect of over 50% in size.
Potency means the concentration at half of the fitted maximal effect; tags describe the fitted curve by direction and shape.

| SMILES | Potency |
| --- | --- |
| O=C(COc1ccccc1F)NC12CC3CC(CC(C3)C1)C2 | inactive |
| Cn1c(SCC(=O)c2ccccc2)nnc1-c1cccc(N)c1 | inconclusive: 25.1 µM [inhibitor, partial curve] |
| S=C(NCCCN1CCOCC1)Nc1ccc(Cl)cc1 | inactive |
| COc1ccc2nc(C)cc(SCC(=O)N/N=C/c3ccc(O)c(O)c3)c2c1 | active: 5.01 µM |
| COCCNC(=O)c1cc2c3ccccc3n(C)c2s1 | inconclusive: 25.1 µM [inhibitor, single point] |
| CCCc1c(CC)c(=N)c2ccccc2n1C | inconclusive: 31.6 µM [inhibitor, partial curve] |
| CCCc1cc(NCCCO)n2c(nc3ccccc32)c1C#N | inconclusive: 12.6 µM [inhibitor, partial curve] |
| CN(C)CCCNc1oc(/C=C/c2ccccc2)nc1C#N | inconclusive: 28.2 µM [inhibitor, partial curve] |
| COc1ccc(C2c3cc(OC)c(OC)cc3Cc3c4cc(OC)c(OC)cc4cc[n+]32)cc1OC (centres undefined) | inactive |
| Cc1ccc(-c2cc(-c3ccccc3)nc(Cl)n2)cc1 | inconclusive: 39.8 µM [inhibitor, single point] |
| O=C(NCc1cccnc1)c1ccc(COc2ccc3c(c2)CCC3)o1 | inactive |
| Cc1ccc2cc(CCNC(=O)c3c(-c4ccccc4Cl)noc3C)c(=O)[nH]c2c1 | inconclusive: 17.8 µM [inhibitor, partial curve] |
| Cc1ccc(S(=O)(=O)N/N=C2/CC(=O)CC(C)(C)C2)cc1[N+](=O)[O-] | inactive |
| NC(=S)N/N=C/c1c(O)ccc2ccccc12 | active: 7.08 µM |
| COc1ccc(CN2CCN(C(=O)c3cccnc3)CC2)cc1Br | inconclusive: 28.2 µM [inhibitor, single point] |
| CC(NCC(c1ccco1)N1CCCCC1)C(=O)NC1CCCC1 (centres undefined) | inconclusive: 31.6 µM [inhibitor, single point] |
| CCN(CC)CCN(Cc1cc2ccc(C)c(C)c2[nH]c1=O)C(=S)NCc1ccco1 | inconclusive: 35.5 µM [inhibitor, partial curve] |
| CC(C)NC(=O)C1CCN(C2CCN(Cc3ccc4cccc(F)c4n3)CC2)CC1 | inactive |
| Cc1c(Cl)c(C(=O)NNC(=S)Nc2ccccc2)nn1C | active: 10 µM |
| COCCN(Cc1cc2c(C)cc(C)cc2nc1Cl)C(=O)c1ccccc1F | inconclusive: 22.4 µM [inhibitor, partial curve] |
| CCN1CCN(C(=O)c2cc3cc([N+](=O)[O-])ccc3oc2=O)CC1 | inactive |
| O=c1cc(-c2cccc(O)c2O)oc2ccccc12 | active: 7.08 µM |
| COc1ccc(NC(=O)/C=C/c2ccco2)cn1 | inactive |
| CCOc1ccccc1NC(=O)CCCN1C(=S)NC(C)(C)CC1C (centres undefined) | inactive |
| O=C(Nc1nc(-c2cccs2)c(C(=O)C(F)(F)F)s1)c1ccccc1 | inactive |

| SMILES | Potency |
| --- | --- |
| COc1cccc2[nH]c3c(N4CCN(Cc5ccc6c(c5)OCO6)CC4)ncnc3c12 | inconclusive: 25.1 µM [inhibitor, partial curve] |
| CC[C@H](C)[C@@H](NC(=O)O[C@@H]1C(=O)c2cc(Br)ccc2O[C@H]1c1ccc2c(c1)OCO2)C(=O)OC | inactive |
| CC(=O)Nc1ccc(-c2ccc3nnc(C)n3n2)cc1 | inconclusive: 31.6 µM [inhibitor, single point] |
| Cc1cc(=O)oc2cc(OCC(=O)NCCc3nc4ccccc4[nH]3)ccc12 | inconclusive: 28.2 µM [inhibitor, partial curve] |
| Cc1cc(C(=O)COC(=O)c2ccc(O)cc2)c(C)n1Cc1ccco1 | inactive |
| COc1ccc(N(CCCN2C(=O)c3cccc4cccc(c34)C2=O)C(=O)c2cccs2)cc1 | inconclusive: 35.5 µM [inhibitor, single point] |
| CC1(C)CC(=O)c2cnn(-c3nc4ccccc4[nH]3)c2C1 | inconclusive: 25.1 µM [inhibitor, single point] |
| CCCCC(=O)NC(c1ccc([N+](=O)[O-])cc1)c1c(O)ccc2ccccc12 (centres undefined) | inconclusive: 39.8 µM [inhibitor, single point] |
| Cc1cc[n+](-c2nc([O-])sc2/C=N/Nc2ccc([N+](=O)[O-])cc2)cc1 | inactive |
| COC(=O)c1cc(Br)c(=O)n(CCc2ccccc2)c1 | inconclusive: 39.8 µM [inhibitor, single point] |
| CC(C)CC(=O)Nc1ccc(-c2nc3ccccc3c(=O)[nH]2)cc1 | inconclusive: 22.4 µM [inhibitor, single point] |
| CN(C)C(=S)c1ccc2ccccc2n1 | inactive |
| COc1ccc(Cl)cc1CN1CCN(c2nc(C)cc(C)c2C#N)CC1 | inconclusive: 39.8 µM [inhibitor, single point] |
| Cc1ccc(NC(=O)Cn2c(C)cc(C)c(C#N)c2=O)c(Cl)c1 | inconclusive: 39.8 µM [inhibitor, single point] |
| Cc1nn(-c2ccccc2)c(C)c1C(=O)OC/C(O)=C(\C#N)c1nc2ccccc2[nH]1 | inconclusive: 39.8 µM [inhibitor, single point] |
| CCC(=O)Nc1ccccc1Sc1ncnc2scc(-c3ccccc3)c12 | inconclusive: 12.6 µM [inhibitor, partial curve] |
| Cc1cnccc1CN(C)Cc1nc(Cc2ccccc2Cl)no1 | inconclusive: 8.91 µM [inhibitor, partial curve] |
| C[C@H](NC(=O)OC(C)(C)C)C(=O)N/N=C/c1cccc2nccnc12 | inconclusive: 35.5 µM [inhibitor, single point] |
| CCOC(=O)c1c(C)n(C)c2cc([N+](=O)[O-])c(O)c([N+](=O)[O-])c12 | inactive |
| CC1=NN(C(=O)c2ccccc2)C(O)(c2ccc(Br)cc2)C1 (centres undefined) | inconclusive: 31.6 µM [inhibitor, single point] |
| O=[N+]([O-])c1cccc(Nc2nc(Cl)nc(Cl)n2)c1 | inactive |
| O=C(O)CCC(=O)NN1C(=O)c2ccccc2NC1c1ccco1 (centres undefined) | inconclusive: 28.2 µM [inhibitor, partial curve] |
| O=C(/C(C=Nc1cc2c(oc1=O)CCCC2=O)=C(\O)c1ccccc1)c1ccccc1 | inconclusive: 39.8 µM [inhibitor, single point] |
| COc1ccc(N=C2NC(=O)/C(=C\c3ccco3)S2)cc1 | inconclusive: 3.98 µM [inhibitor, partial curve] |
| O=C(CCC(=O)Nc1cccc(Cl)c1)N/N=C/c1cc([N+](=O)[O-])ccc1O | active: 17.8 µM |

| SMILES | Potency |
| --- | --- |
| CC1=C(C#N)C(c2ccc(O)cc2)C2=C(CC(C)(C)CC2=O)N1 (centres undefined) | inconclusive: 28.2 µM [inhibitor, partial curve] |
| O=C(c1cc[n+]([O-])cc1)N1CCc2c([nH]c3ccccc23)C1c1ccccc1Cl (centres undefined) | inconclusive: 0.158 µM [inhibitor, full curve] |
| Fc1ccc(-c2nc3c(-c4ccccc4)cnn3cc2CCN2CCOCC2)cc1 | inactive |
| Cc1sc(NC(=O)c2cccnc2)nc1-c1ccccc1 | inconclusive: 28.2 µM [inhibitor, single point] |
| NC(=O)c1cc(N)ccc1N1CCCCC1 | inactive |
| CCOc1cc2[nH]c(=S)n(CCCOC)c(=O)c2cc1OCC | inactive |
| O=C(CN1CCOCC1)N1N=C(c2cccs2)CC1c1cccs1 (centres undefined) | inconclusive: 31.6 µM [inhibitor, single point] |
| CCCS(=O)(=O)NCCc1cc2ccc(OC)cc2[nH]c1=O | inconclusive: 31.6 µM [inhibitor, single point] |
| Cc1cc(C)cc(Oc2nc3c(C)cccn3c(=O)c2/C=C(\C#N)C(=O)NC2CCS(=O)(=O)C2)c1 (centres undefined) | inconclusive: 0.708 µM [inhibitor, full curve] |
| C=CCn1c(C(CC)CC(C)(C)O)n[nH]c1=S (centres undefined) | inactive |
| Cc1cc(N2CCCCCC2)nc(-c2ccccc2O)n1 | inconclusive: 35.5 µM [inhibitor, partial curve] |
| Cc1ccc(-c2csc(NC(=O)c3cccs3)n2)cc1 | inconclusive: 39.8 µM [inhibitor, single point] |
| O=C1c2cnc3ncnn3c2CC2c3ccccc3CCN12 (centres undefined) | inconclusive: 3.16 µM [inhibitor, full curve] |
| O=C(N/N=C/c1ccc2ncccc2c1)c1cc(-c2cccs2)nc2ccccc12 | inconclusive: 22.4 µM [inhibitor, partial curve] |
| CCOC(=O)C1(CCOC)CCN(Cc2ccc(C3CCCCO3)s2)CC1 (centres undefined) | inactive |
| CCc1cc2c(=O)c(-c3nc4ccccc4n3C)c(C(C)C)oc2c(CN2CCN(C)CC2)c1O | inconclusive: 28.2 µM [inhibitor, partial curve] |
| CNc1oc(C)nc1S(=O)(=O)c1ccccc1 | inconclusive: 39.8 µM [inhibitor, single point] |
| COC(=O)[C@H](COC(C)(C)C)NC(=O)O[C@@H]1C(=O)c2cc(Br)ccc2O[C@H]1c1ccc2c(c1)OCO2 | inactive |
| COc1ccc(NC(=O)Cn2nnc(-c3ccccc3F)n2)cc1 | inactive |
| O=C(CN1C(=O)c2cccc3cccc(c23)C1=O)N1CCN(Cc2ccc3c(c2)OCO3)CC1 | inconclusive: 35.5 µM [inhibitor, partial curve] |
| CCc1nc(NCCCN2CCOCC2)c2oc3ccccc3c2n1 | inconclusive: 39.8 µM [inhibitor, single point] |
| CCc1ccc(NC(=O)CSCCO)cc1 | inactive |
| O=C(CSc1ccc(-c2ccccn2)nn1)N1CCc2ccccc21 | inactive |
| CCCCN(C)S(=O)(=O)c1ccc(C(=O)Nc2nnc(C3=COCCO3)o2)cc1 | inconclusive: 39.8 µM [inhibitor, single point] |
